Laboratory results reported in the supplement of paper PMC3334620.
Over roughly 33,000 sequences, “E-score (-0.5 to 0.5)” has its median near -0.054; the highest 2% begin near 0.39. The list shows a part of the results.

Each sequence was assayed against Ylr278c (UniProt Q05854) (assay: PBM E-score (8-mer binding enrichment) (E-score (-0.5 to 0.5)); higher = stronger / more preferred TF binding; most listed sequences are background and not binding sites). Details: protein concentration: 200 nM; construct: GST-DNA-binding domain.
In short: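 E-scores (a modified Wilcoxon-Mann-Whitney statistic) were assigned by the Universal PBM Analysis Suite to every ungapped eight-base word pooled with its reverse complement. The input came from universal all-10-mer Agilent arrays made double-stranded by primer extension and probed with GST-tagged yeast transcription factors at about 100-200 nM. Fluorescent anti-GST detected bound protein, and masliner normalised the scans.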

Row | Sequence | PBM E-score
1 | ACTTCCGG | 0.435
2 | ACCTGAAA | -0.126
3 | AAGGGAGC | -0.188
4 | AAGCATGT | -0.0735
5 | GATAAAGC | 0.0237
6 | CAAACGAA | -0.169
7 | AGTGGTCA | -0.116
8 | ATGAGGTC | -0.106
9 | CCACCCGG | 0.202
10 | AACAAACT | -0.0952
11 | ACTCAAAG | -0.129
12 | CCTCGACC | -0.223
13 | CTCAGCGA | -0.0593
14 | CCGGATGA | 0.303
15 | AAGCGTGA | -0.13
16 | AGCAAGCC | -0.111
17 | ACATGCAG | -0.134
18 | CTACCGAG | -0.0823
19 | CTTTAATA | 0.0142
20 | AGACAAAC | -0.0425
21 | CGTCGAAC | -0.298
22 | CTAGTGGC | -0.215
23 | AACAGGTA | -0.116
24 | AATAGGCC | -0.00231
25 | CAGTTCCG | 0.348

Row | Sequence | PBM E-score
26 | AAATTTGG | -0.163
27 | ATAAGCGC | -0.172
28 | ATGAGTCC | 0.077
29 | AGAGCCAT | -0.21
30 | GCCAGTCC | 0.154
31 | AGACCCCG | 0.273
32 | CTGCACTC | 0.0214
33 | CCCACGTC | -0.086
34 | GACAAAGC | 0.118
35 | AATGAGGG | -0.129
36 | CTTGCACA | -0.107
37 | CGCGGCAG | 0.203
38 | ACTGTTTC | -0.0349
39 | AGCCCGAC | 0.152
40 | ACCTATCT | -0.157
41 | GACCCCTA | -0.298
42 | GATCGAGC | 0.112
43 | AGCCTAAG | -0.224
44 | TATCGATA | -0.194
45 | ACCTGGAT | -0.113
46 | GGAGTAGA | 0.185
47 | ACGCGTAT | 0.00763
48 | GTTGTCTA | -0.00467
49 | ATCGACAG | -0.00817
50 | CACACAGA | -0.181

Row | Sequence | PBM E-score
51 | AGCTGGTC | -0.294
52 | AACCTATA | -0.065
53 | CGTCTAAG | -0.11
54 | ACTGTCCA | -0.23
55 | CCAAGACG | -0.096
56 | CTTGTCGA | -0.383
57 | CACTCTGG | -0.148
58 | AGCCAATA | -0.216
59 | AAATAGTC | 0.0388
60 | GAGAAGGC | -0.073
61 | CGAGGTGA | -0.0625
62 | CACTCCCC | 0.268
63 | CCATGGGG | -0.118
64 | GGAATCTA | 0.105
65 | AACTTGGG | 0.084
66 | GACCGCCA | 0.0962
67 | CGTGAGTA | -0.0804
68 | AAGCTCGC | -0.0769
69 | CACCACCC | 0.0293
70 | CAACCGCA | 0.0229
71 | ATGATCTC | -0.114
72 | CGTACTTA | -0.0725
73 | AGCGCTGG | -0.0997
74 | AGGCCGAT | 0.284
75 | AACTTCCA | 0.0686

Row | Sequence | PBM E-score
76 | AATCCATT | -0.0189
77 | ATACATCC | 0.109
78 | CAATTTCC | 0.338
79 | GATGCAGC | -0.0252
80 | CAACTAGG | -0.156
81 | AAGCTAAC | -0.181
82 | ATATTGAG | 0.0101
83 | CTCCCTGA | -0.119
84 | CACCAAAG | 0.00548
85 | CTACCTGA | -0.186
86 | CCGTCTTC | 0.212
87 | AATTGCCT | -0.0482
88 | AGACCCAT | -0.229
89 | ACGGAGAA | 0.434
90 | CGGGAGCA | 0.108
91 | CACTTTGC | -0.11
92 | GGTGCAGA | -0.112
93 | ATGAACCC | 0.00089
94 | TATGTCCA | -0.128
95 | GCAGCAAC | -0.0598
96 | CCCGTACA | -0.145
97 | ACGCTTCT | -0.0866
98 | GATAGCTA | -0.149
99 | CGACTGAC | -0.171
100 | GTACCAGA | -0.28

Row | Sequence | PBM E-score
101 | CAAATATC | 0.079
102 | ATCTCGTG | -0.129
103 | ATTCCCCC | 0.162
104 | TGGTTTAA | -0.178
105 | ATACGCAG | -0.217
106 | CACGCCCC | 0.0123
107 | ATCACTCC | 0.23
108 | GAGCTGGA | 0.0426
109 | GCCAACAC | 0.0249
110 | GTGCAGTA | 0.0688
111 | CAATCTTC | 0.0146
112 | AGATAGCG | -0.176
113 | AACGACCG | -0.109
114 | AGTAAATA | 0.00217
115 | ATCTCTGC | -0.138
116 | GTTTGCAA | -0.0089
117 | AGGTTGTC | -0.247
118 | CGACGCTC | 0.149
119 | ATATTTTC | 0.0689
120 | ACGCTGTC | -0.0394
121 | AAGGCCTC | -0.154
122 | ACTCAAGA | -0.178
123 | CTGCACAC | -0.171
124 | CTGGGCCC | -0.096
125 | CTACGAGC | -0.132

Row | Sequence | PBM E-score
126 | CCTAGTCG | -0.282
127 | CGATTCGA | 0.00583
128 | CCGCGCAA | 0.231
129 | AATGCCCC | 0.0688
130 | ACACTAGT | -0.206
131 | ATGGCTTG | -0.164
132 | ATTTACTG | 0.0212
133 | AACCTGTG | -0.269
134 | AATTGGGA | 0.037
135 | TAACGCTA | -0.054
136 | AACAATGT | -0.11
137 | AAGTTGGG | -0.16
138 | CTCCGAGA | 0.452
139 | TACCTCTA | -0.217
140 | CAGGGAGA | -0.224
141 | ACGACGGA | 0.301
142 | GGAAACTA | 0.0278
143 | ATTTCGCG | 0.214
144 | AACTCTGC | -0.163
145 | CGAGGCAG | -0.0505
146 | ATTTCAAC | 0.0433
147 | TCATGCGA | -0.0723
148 | GAAAACTC | 0.182
149 | ATTCGTTC | 0.102
150 | ATCTGAGC | 0.00063

Row | Sequence | PBM E-score
151 | CTGAGATC | -0.196
152 | AGAAGGAC | -0.224
153 | GTTCATTA | -0.0496
154 | GTTTAGAA | 0.00196
155 | CAGTCTTA | -0.268
156 | GGCCCGCC | 0.159
157 | GAAAATAA | -0.0861
158 | CATTGCTC | 0.152
159 | GAGACCCA | -0.091
160 | ACCAGGTG | -0.276
161 | AACTAAGC | -0.0826
162 | CTGGCGAA | -0.242
163 | CCACAGGG | -0.153
164 | AAGTCGAG | -0.374
165 | AGAAGGTA | -0.00249
166 | AGTTGAGC | -0.117
167 | CGTGGTCC | 0.021
168 | CCTATGAC | -0.246
169 | AAAATGCT | 0.0133
170 | ATCAGTGA | -0.0659
171 | GGAGTTAA | 0.312
172 | CGATGTCC | 0.321
